In the GPR68 mutational scans of Howard et al. (2025):
Scores whose standard error is large were omitted. Not listed are two conditions whose scores span a narrow range. In variant names, del marks residues removed and ins residues inserted between the two positions. For some of these results: The concentration of ogerin is not given here.

B1: GPR68, Q15743 (parent)
chain: MGNITADNSSMSCTIDHTIHQTLAPVVYVTVLVVGFPANCLSLYFGYLQIKARNELGVYLCNLTVADLFYICSLPFWLQYVLQHDNWSHGDLSCQVCGILLYENIYISVGFLCCISVDRYLAVAHPFRFHQFRTLKAAVGVSVVIWAKELLTSIYFLMHEEVIEDENQHRVCFEHYPIQAWQRAINYYRFLVGFLFPICLLLASYQGILRAVRRSHGTQKSRKDQIQRLVLSTVVIFLACFLPYHVLLLVRSVWEASCDFAKGVFNAYHFSLLLTSFNCVADPVLYCFVSETTHRDLARLRGACLAFLTCSRTGRAREAYPLGAPEASGKSGAQGEEPELLTKLHPAFQTPNSPGSGGFPTGRLA

Legend:
[1] = variants of: B1; experiment: cAMP reporter score (Enrich2 score, wild type = 0); higher = more signal; HEK293T, FACS bins
[2] = variants of: B1; experiment: surface expression score (Enrich2 score, wild type = 0); higher = more signal; HEK293T, FACS bins

Variant | cAMP reporter score ([1]; pH 5.5) | cAMP reporter score ([1]; pH 6) | cAMP reporter score ([1]; pH 6, modulator: ogerin) | cAMP reporter score ([1]; pH 6.5, modulator: ogerin) | surface expression score [2]
F307_L308del | -0.137 | 0.197 | 0.417 | -0.086 | -0.025
L305D | 0.764 | 0.224 | 0.643 | 0.889 | -0.709
L305W | 0.34 | -0.555 | 0.328 | 0.326 | 0.816
L305Q | 0.326 | – | 1.41 | 1.27 | –
L305G | -0.309 | – | 0.335 | 1.06 | 0.356
L305H | 0.206 | -0.673 | 0.308 | 0.635 | 0.59
L305A | 0.579 | 0.276 | 0.676 | -0.275 | 1.1
L305E | 0.609 | 1.09 | 0.589 | -0.077 | 0.146
L305T | 0.576 | – | -0.536 | -0.381 | 2.07
L305I | 1.28 | 0.468 | 0.654 | 1.02 | 1.84
L305P | 0.143 | -0.615 | 0.417 | -0.039 | 0.15
L305K | 0.129 | -0.41 | 0.009 | -0.526 | -1.24
L305Y | 1.46 | 0.358 | 0.957 | 1.31 | 0.909
L305S | 0.48 | 0.678 | 0.548 | 0.504 | 0.697
L305M | 0.203 | 0.802 | 0.064 | 1.02 | 0.409
L305R | -0.229 | 1.47 | 0.455 | 0.43 | 0.1
L305F | 1.24 | – | 0.541 | 0.879 | 0.765
L305N | 0.174 | -1.05 | 0.328 | 0.207 | 0.79
L305V | 0.413 | 0.395 | 0.494 | 0.629 | 0.718
L305C | 0.795 | – | – | 1.63 | 0.77
T309_C310insGS | 0.997 | 0.983 | 0.712 | 1.69 | 1.25
C304_A306del | 0.973 | 0.148 | 0.612 | -0.266 | 0.363

Variant | cAMP reporter score ([1]; pH 5.5) | cAMP reporter score ([1]; pH 6) | cAMP reporter score ([1]; pH 6, modulator: ogerin) | cAMP reporter score ([1]; pH 6.5, modulator: ogerin) | surface expression score [2]
L305del | -0.792 | -1.03 | -1.09 | -1.23 | -1.16
C310_S311del | 0.399 | – | 1.21 | 2.27 | 0.546
L308_T309del | 1.14 | 1.34 | 0.887 | 1.59 | 1.28
R312_T313del | 1.29 | 0.331 | 1.37 | 1.16 | 0.072
C310E | -0.34 | 0.517 | -0.58 | 0.182 | -0.721
C310M | -0.492 | – | -0.136 | 0.134 | -0.83
C310S | 1.68 | 2.6 | 2.05 | 2.97 | 1.14
C310Q | -0.118 | 0.881 | 0.263 | 0.707 | -0.974
C310N | 2.02 | – | 1.65 | 2.77 | 0.264
C310D | 1.32 | – | 1.41 | 1.69 | 0.376
C310A | 0.743 | 2.09 | 0.968 | 1.84 | 0.415
C310I | -0.014 | – | 0.29 | – | -0.019
C310T | 0.635 | 1.42 | 1.18 | 1.56 | 0.263
C310R | 0.978 | – | 1.7 | 2.72 | 1.67
C310P | 0.18 | – | – | 0.37 | -0.224
C310H | 0.428 | 1.59 | 0.558 | 1.79 | 0.414
C310G | 1.33 | 3.32 | 0.903 | 2.7 | 0.716
C310L | 0.242 | 1.02 | 0.333 | 0.536 | -0.431
C310F | -0.263 | 0.677 | -0.267 | 0.172 | 0.116
C310Y | 0.045 | 0.112 | -0.015 | 0.091 | -0.385
C310V | 0.282 | 1.01 | 0.704 | 1.67 | -0.741
C310K | 2.01 | 3.45 | 2.21 | 3.85 | 0.799

Variant | cAMP reporter score ([1]; pH 5.5) | cAMP reporter score ([1]; pH 6) | cAMP reporter score ([1]; pH 6, modulator: ogerin) | cAMP reporter score ([1]; pH 6.5, modulator: ogerin) | surface expression score [2]
C310W | 0.924 | 1.01 | 1.01 | 0.468 | 0.151
L308del | 0.014 | -0.727 | 0.069 | -0.435 | -0.467
R312_T313insGS | 0.718 | 0.304 | -0.153 | 1.18 | 0.786
C310_S311insGSG | -0.117 | – | -0.016 | 0.394 | 0.284
S311del | -0.023 | -1.22 | -0.156 | 1.24 | 0.149
F307_L308insG | -0.105 | 1.25 | 0.593 | -0.353 | -0.416
L308_C310del | 0.527 | -0.581 | 0.742 | 0.973 | -0.656
G314E | 0.84 | 0.712 | 0.807 | 1.04 | 0.626
G314D | 0.278 | 0.079 | 0.121 | 0.407 | 0.908
G314C | 0.957 | 0.223 | 0.864 | 1.15 | 0.521
G314A | 0.898 | -0.03 | 0.856 | 0.208 | 0.31
G314F | 0.438 | -0.209 | 0.476 | -0.022 | -0.383
T309S | 0.609 | 0.845 | 0.559 | 0.527 | -0.099
T309M | 1.83 | 2.55 | – | -0.432 | -0.389
T309P | 0.518 | 0.064 | -0.174 | 0.211 | -0.279
T309W | 0.965 | – | -0.065 | -0.432 | -0.395
T309N | 0.407 | -0.215 | 0.229 | 0.496 | 0.166
T309G | 0.455 | 0.997 | 0.454 | 1.21 | 0.179
T309A | -0.845 | -1.77 | -0.092 | -0.676 | -0.153
T309L | 0.669 | -0.084 | 0.608 | 0.52 | -0.474
